Measurements taken from PubChem BioAssay AID588591 (National Center for Advancing Translational Sciences (NCATS), 2011).
About 4,700 (1.2%) of roughly 390,000 compounds were called active. Inconclusive means that the source gave no clear call. Such entries were picked first, then a sample of the others. The call rests on the fitted dose curve; in most records, active means well fitted inhibition curve with a large enough effect; inconclusive means small, poorly fitted or top-dose-only effect, or another doubt; inactive means no such curve, though single readings can be large or run the other way. A potency beside an inconclusive call is a rough fit, not a confirmed value.

molecular target: DNA polymerase eta (Homo sapiens) (UniProt Q9Y253); test: qHTS for Inhibitors of Polymerase Eta; details: recombinant Pol eta, fluorescent DNA replication assay; series mostly up to 114 µM; activity change, negative = inhibition: at the top concentration
How it was run: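 Pol eta at 10 nM preincubated with compounds 15 min at room temperature; reaction started with fluorescent substrate (50 nM final) and read kinetically at 0 and 10 min.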
On the % scale 0 is the no-effect control and ±100 the full control effect; potency means the concentration at half of the fitted maximal effect; tags describe the fitted curve by direction and shape.

Chain of UniProt Q9Y253 (Q9Y253 whole entry, looked up): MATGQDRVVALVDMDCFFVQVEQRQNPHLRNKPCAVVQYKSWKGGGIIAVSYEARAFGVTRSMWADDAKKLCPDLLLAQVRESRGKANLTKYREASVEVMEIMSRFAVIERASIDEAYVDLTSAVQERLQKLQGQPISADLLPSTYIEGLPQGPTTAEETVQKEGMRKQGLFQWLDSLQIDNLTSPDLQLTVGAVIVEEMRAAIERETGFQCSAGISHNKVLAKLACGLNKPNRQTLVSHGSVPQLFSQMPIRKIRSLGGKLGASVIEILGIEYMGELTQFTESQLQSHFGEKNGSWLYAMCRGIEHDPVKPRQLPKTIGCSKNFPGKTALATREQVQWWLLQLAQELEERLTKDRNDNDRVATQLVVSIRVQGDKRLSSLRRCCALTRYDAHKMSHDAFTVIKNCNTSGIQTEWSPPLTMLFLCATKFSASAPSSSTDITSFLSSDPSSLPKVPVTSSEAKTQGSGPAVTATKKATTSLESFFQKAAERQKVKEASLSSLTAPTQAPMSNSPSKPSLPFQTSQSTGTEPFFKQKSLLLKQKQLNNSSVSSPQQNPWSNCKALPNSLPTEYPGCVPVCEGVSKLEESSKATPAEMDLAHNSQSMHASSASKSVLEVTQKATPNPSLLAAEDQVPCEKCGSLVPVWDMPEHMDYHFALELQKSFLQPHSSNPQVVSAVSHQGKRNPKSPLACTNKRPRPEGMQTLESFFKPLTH

SMILES | Potency | activity change, negative = inhibition
CC(C)(C)OC(=O)NCC12C=CC(O1)C1C(=O)N(Cc3ccccc3)C(=O)C12 (centres undefined) | inconclusive: 1.58 µM [inhibitor, full curve, poor fit] | 
CC(C)Oc1ccc(CNC(=O)C2=Cc3ccccc3OC2)cc1 | inconclusive: 44.7 µM [inhibitor, partial curve, poor fit] | 
O=C(Cc1ccccc1F)Nc1cc(S(=O)(=O)N2CCCCC2)ccc1N1CCOCC1 |  | inactive: -4.82%
COc1cc2nc(Nc3cccc(F)c3)nc(N)c2cc1OC | inconclusive: 79.4 µM [inhibitor, partial curve] | 
O=S(=O)(NCCc1nnc2ccc(SCc3ccccc3Cl)nn12)c1ccccc1 |  | inactive: -22.6%
O=C(O)CSc1nnc(-c2ccccc2)c(-c2ccccc2)n1 | inconclusive: 100 µM [inhibitor, partial curve, poor fit] | 
CC(C)c1cc(-c2cc(-c3ccc(Cl)cc3)on2)nc(NCC2CC2)n1 | inconclusive: 31.6 µM [inhibitor, partial curve, poor fit] | 
O=C(CCN1C(=O)/C(=C/C=C/c2ccccc2)SC1=S)Nc1cccnc1 | active: 5.01 µM | 
CC(=O)c1cc(C(=O)Nc2ccccc2C(=O)O)oc1C | inconclusive: 28.2 µM [inhibitor, single point] | 
CCCC(=O)NC1=C(Cl)C(=O)c2ccccc2C1=O | inconclusive: 56.2 µM [inhibitor, partial curve, poor fit] | 
Cc1nc(Nc2cnc(/C=C/c3cc(C(=O)Nc4cccc(C(F)(F)F)c4)ccc3C)cn2)cc(N2CCNCC2)n1 | active: 39.8 µM | 
CCCn1c(NC(=O)CN2C(=O)NC3(CCCC3)C2=O)nc2ccccc21 |  | inactive: -15.1%
Cc1ccc(-c2nnc(Nc3ccc(C(N)=O)cc3)c3ccccc23)cc1S(=O)(=O)NCC1CCCO1 (centres undefined) | inconclusive: 28.2 µM [inhibitor, partial curve, poor fit] | 
Cc1c(C#N)c(O)[nH]c(=O)c1N=Nc1ccc(S(N)(=O)=O)cc1 | active: 25.1 µM | 
Cc1cc(C(=O)CSc2nnc(-c3cccnc3)n2-c2ccccc2F)c(C)n1C | inconclusive: 12.6 µM [inhibitor, partial curve, poor fit] | 
CCCCc1ccc(NC(=S)Nc2ccc(Cl)c(S(=O)(=O)N(C)C)c2)cc1 | inconclusive: 63.1 µM [inhibitor, partial curve, poor fit] | 
O=[N+]([O-])c1ccc(Cl)cc1P(=O)(O)c1cc(Cl)ccc1[N+](=O)[O-] | inconclusive: 0.251 µM [inhibitor, partial curve, poor fit] | 
COC(=O)c1c(NC(=O)COC(=O)[C@@H](NS(=O)(=O)c2ccccc2)C(C)C)sc2c1CCC2 | inconclusive: 8.91 µM [inhibitor, full curve, poor fit] | 
CCOc1ccc(Br)cc1S(=O)(=O)NCC(c1ccc(OC)cc1)N1CCOCC1 (centres undefined) |  | inactive: -9.8%
COc1ccc(/C=N/Nc2cc(N(C)C)nc(N(C)C)n2)cc1 | inconclusive: 12.6 µM [inhibitor, partial curve, poor fit] | 
O=C(COC(=O)c1ccc(NS(=O)(=O)c2cccs2)cc1)Nc1nc2c(F)c(F)c(F)cc2s1 | active: 20 µM | 
CCc1ccc(NC(=O)CC2C(=O)N(c3cccc(OC)c3)C(=O)N2Cc2ccc(F)cc2)cc1 (centres undefined) |  | inactive: -4.37%

SMILES | Potency | activity change, negative = inhibition
COc1ccc(NC(=O)/C(C#N)=C\c2ccc(-c3cccc(C(=O)O)c3C)o2)cc1 | active: 22.4 µM | 
O[C@H]1C[C@H](c2ccccc2)N(CC2CCCCC2)C[C@@H]1n1cc(C2CC2)nn1 |  | inactive: -18.5%
O=C(O)C(c1ccccc1)N1C(=O)/C(=C\c2ccc(-c3ccccc3Cl)o2)SC1=S (centres undefined) | active: 39.8 µM | 
COc1ccc(-c2c(C)n([O-])c3c([n+]2=O)CCCCC3)cc1 | inconclusive: 79.4 µM [inhibitor, partial curve, poor fit] | 
Cc1cc(SCc2ccc([N+](=O)[O-])cc2)nc(=O)[nH]1 | active: 25.1 µM | 
COc1ccc(NC(=O)CCS(=O)(=O)c2ccc3c(c2)oc(=O)n3C)cc1 | inconclusive: 56.2 µM [inhibitor, partial curve] | 
Cn1c(N)c(C(=O)COC(=O)C2CCC(C(C)(C)C)CC2)c(=O)n(C)c1=O (centres undefined) | inconclusive: 39.8 µM [inhibitor, partial curve, poor fit] | 
C=CCn1c(SCC(=O)NC2CCCCC2)nnc1-c1ccccn1 | inconclusive: 39.8 µM [inhibitor, partial curve, poor fit] | 
COc1cc2cc(CNc3ccccc3)c(=O)n(CC(=O)Nc3cccc(Cl)c3C)c2cc1OC | inconclusive: 89.1 µM [inhibitor, single point] | 
CCCCNC(=O)C1CCCN(S(=O)(=O)CCC)C1 (centres undefined) |  | inactive: 4.34%
N=C1/C(=C/c2ccc(-c3cccc(C(=O)O)c3)o2)C(=O)N=C2SC(CC(=O)N3CCOCC3)=NN12 | active: 3.55 µM | 
COc1ccc(S(=O)(=O)/C(C#N)=C/Nc2ccc(NC(C)=O)cc2)cc1 |  | inactive: -7.58%
CN(Cc1ccc(Cl)c(Cl)c1)C(=O)C1CC(=O)N(c2ccc3c(c2)OCCO3)C1 (centres undefined) |  | inactive: -12.5%
Cc1nc(SCC(=O)Nc2ccc(C)c(F)c2)c2oc3ccccc3c2n1 | inconclusive: 14.1 µM [inhibitor, full curve, poor fit] | 
CN(Cc1cccc(Cl)c1Cl)C(=O)c1ccc(NC(=O)CC#N)cc1 | inconclusive: 17.8 µM [inhibitor, single point] | 
Cc1cc(OC(C)C(=O)NCC2CCC(C(=O)O)CC2)c2c(C)c(Cc3ccccc3)c(=O)oc2c1 (centres undefined) | inconclusive: 25.1 µM [inhibitor, full curve] | 
O=C(NC1CCCCC1)c1c2c(nc3ccccc13)CCC2 | inconclusive: 79.4 µM [inhibitor, partial curve, poor fit] | 
Cc1cccc(C(=O)Oc2coc(CSc3nnc(NC(=O)C4CC4)s3)cc2=O)c1 | inconclusive: 20 µM [inhibitor, partial curve, poor fit] | 
O=C1NN=C(CSc2n[nH]c(=S)s2)CS1 |  | inactive: -13.3%
O=C1CC(=O)CC(c2ccccc2Cl)C1 | inconclusive: 31.6 µM [inhibitor, partial curve, poor fit] | 
Nn1c(SCC(=O)Nc2cc(C(F)(F)F)ccc2Cl)nncc1=O | inconclusive: 28.2 µM [inhibitor, single point] | 
CN(C)c1ccc(/C=C2/C[N+](C)(C)C/C(=C/c3ccc(N(C)C)cc3)C2=O)cc1 | inconclusive: 39.8 µM [inhibitor, partial curve] | 

SMILES | Potency | activity change, negative = inhibition
Cc1ccc(C(=O)/C=C/c2ccccc2)o1 | inconclusive: 31.6 µM [inhibitor, single point] | 
O=C(OCc1ccc(Br)cc1)c1cccc(-c2nnc(-c3ccccc3)o2)c1 | inconclusive: 7.94 µM [inhibitor, partial curve] | 
CCc1nnc2sc(-c3ccc(NC(=O)c4ccco4)cc3)nn12 | inconclusive: 28.2 µM [inhibitor, single point] | 
O=C1C/C(=C\c2c(F)cccc2Cl)N2CCC1CC2 | inconclusive: 89.1 µM [inhibitor, partial curve, poor fit] | 
Cc1cccc(N2CCN(c3nc4nonc4nc3N3CCSCC3)CC2)n1 | inconclusive: 89.1 µM [inhibitor, partial curve, poor fit] | 
Cc1cc(NS(=O)(=O)c2ccc(Cl)cc2)nn1CC(=O)NCc1ccco1 | inconclusive: 20 µM [inhibitor, partial curve, poor fit] | 
CN(C)CCNC(=O)c1sc2nc(-c3ccccc3)cc(C(F)(F)F)c2c1N | inconclusive: 79.4 µM [inhibitor, partial curve, poor fit] | 
CCOc1ccc2nc(/N=C/c3nc(-c4ccc(Br)cc4)oc3O)sc2c1 | inconclusive: 6.31 µM [inhibitor, partial curve] | 
C/C(CC(=O)N1CCN(C=O)CC1)=N\NC(=O)c1cc2ccccc2cc1O | inconclusive: 28.2 µM [inhibitor, single point] | 
CCOC(=O)C1CCCN(Cc2cn3c(-c4cccc(Br)c4)nnc3s2)C1 (centres undefined) |  | inactive: -5.73%
CC(=O)c1ccc(N2C(=O)C3C(C2=O)C(C(=O)c2ccc(Cl)cc2)N2CCCC32)cc1 (centres undefined) | inconclusive: 39.8 µM [inhibitor, single point] | 
Cc1ccc[n+](CC(=O)Nc2ccc(C)c(C)c2)c1 |  | inactive: -14.3%
Cc1cccc(OCC(=O)Nc2nnc(S(=O)(=O)N3CCc4ccccc43)s2)c1 | active: 89.1 µM | 
Cc1ccc(OCc2ccc([N+](=O)[O-])cc2)c([N+](=O)[O-])n1 | inconclusive: 20 µM [inhibitor, full curve, poor fit] | 
CC(C)(C)c1cc(C(=O)NNc2cccc(Cl)c2)n(Cc2ccccc2)n1 | inconclusive: 56.2 µM [inhibitor, partial curve, poor fit] | 
CCc1ccc(S(=O)(=O)c2nnn3c2nc(Nc2ccc(NC(C)=O)cc2)c2sccc23)cc1 | inconclusive: 50.1 µM [inhibitor, full curve, poor fit] | 
COc1ccc(OC)c(NC(=O)Cn2c(=O)cc(-c3ccccc3)c3c(C)nn(C)c32)c1 | inconclusive: 100 µM [inhibitor, partial curve, poor fit] | 
Cc1nnc(NC(=O)CSc2nnc3scc(-c4ccc(C)c(C)c4)n23)s1 | inconclusive: 25.1 µM [inhibitor, full curve] | 
COCCNC(=O)Nc1ccc2nc(-c3ccco3)c(-c3ccco3)nc2c1 | active: 2.82 µM | 
Cc1sc(NC(=O)c2cc(-c3ccc(Cl)cc3)nc3ccccc23)c(C(N)=O)c1C | inconclusive: 11.2 µM [inhibitor, partial curve] | 
